Results published in article PMC7363125.
No constants are given. Whether binding was seen depends on the method and setting. In cells and extracts the contact can be indirect. Some results given as binding are weak or reduced against the parent protein; the word gives no strength. Where a sequence is shown, tags or fusion partners need not be part of it.

Columns and labels:
Test in all cases: pull-down; 5 ug GST-PLEKHA7 WW bait (E. coli) coupled to GSH-Sepharose beads, washed, incubated 1 h at 4 °C with normalized HEK cell lysate holding PDZD11-HA or CFP-HA; immunoblot with anti-HA; only the target purified
[1] = target: T1, GST-PLEKHA7 WW1 + WW2 domain (1-162) T35A + N76A (human) (UniProt Q6IQ23)
T1 sequence: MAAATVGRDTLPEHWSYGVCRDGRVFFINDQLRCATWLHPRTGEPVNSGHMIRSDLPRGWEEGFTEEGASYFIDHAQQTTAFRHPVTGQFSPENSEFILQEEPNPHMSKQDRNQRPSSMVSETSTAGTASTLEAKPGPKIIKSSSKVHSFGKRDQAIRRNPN

[2] = target: T2, GST-PLEKHA7 WW1 + WW2 domain (1-162), mutation within the WW2 domain at position 85 (human) (UniProt Q6IQ23)
T2 sequence: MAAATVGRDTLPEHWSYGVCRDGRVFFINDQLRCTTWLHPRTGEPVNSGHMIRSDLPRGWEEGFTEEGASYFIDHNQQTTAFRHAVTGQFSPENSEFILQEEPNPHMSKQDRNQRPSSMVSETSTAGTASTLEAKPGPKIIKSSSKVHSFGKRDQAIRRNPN

[3] = target: T3, GST-PLEKHA7 WW1 domain (residues 1-56) F27A (human) (UniProt Q6IQ23)
T3 sequence: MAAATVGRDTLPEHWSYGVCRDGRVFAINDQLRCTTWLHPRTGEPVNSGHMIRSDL

[4] = target: T4, GST-PLEKHA7 WW1 + WW2 domain (1-162), mutation within the WW2 domain at position 84 (human) (UniProt Q6IQ23)
T4 sequence: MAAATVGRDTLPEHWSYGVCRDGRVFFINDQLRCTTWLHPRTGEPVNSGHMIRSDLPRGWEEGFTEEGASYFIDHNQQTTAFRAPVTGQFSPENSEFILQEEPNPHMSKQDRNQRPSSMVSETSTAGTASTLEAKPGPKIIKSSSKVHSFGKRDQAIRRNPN

[5] = target: T5, GST-PLEKHA7 WW1 domain (residues 1-56) Y17A (human) (UniProt Q6IQ23)
T5 sequence: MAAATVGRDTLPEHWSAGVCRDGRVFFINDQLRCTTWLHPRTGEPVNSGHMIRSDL

[6] = target: T6, GST-PLEKHA7 WW1 + WW2 domain (1-162) N29A (human) (UniProt Q6IQ23)
T6 sequence: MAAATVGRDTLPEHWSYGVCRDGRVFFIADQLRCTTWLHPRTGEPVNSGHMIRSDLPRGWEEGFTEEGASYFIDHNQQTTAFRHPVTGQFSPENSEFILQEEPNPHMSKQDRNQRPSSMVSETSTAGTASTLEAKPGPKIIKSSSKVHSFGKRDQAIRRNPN

[7] = target: T7, GST-PLEKHA7 WW1 + WW2 domain (1-162) N76A (human) (UniProt Q6IQ23)
T7 sequence: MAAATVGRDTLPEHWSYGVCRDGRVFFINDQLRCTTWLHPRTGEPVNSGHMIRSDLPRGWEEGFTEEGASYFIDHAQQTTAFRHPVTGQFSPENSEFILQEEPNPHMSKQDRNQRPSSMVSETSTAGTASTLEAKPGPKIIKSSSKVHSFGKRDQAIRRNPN

[8] = target: T8, GST-PLEKHA7 WW1 + WW2 domain (1-162) D22A (human) (UniProt Q6IQ23)
T8 sequence: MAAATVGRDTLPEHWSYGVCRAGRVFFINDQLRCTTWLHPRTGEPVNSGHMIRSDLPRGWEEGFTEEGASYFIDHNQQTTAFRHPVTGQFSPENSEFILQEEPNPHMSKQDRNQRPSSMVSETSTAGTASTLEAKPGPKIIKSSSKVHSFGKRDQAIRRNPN

[9] = target: T9, GST-PLEKHA7 WW1 domain (residues 1-56) V25A (human) (UniProt Q6IQ23)
T9 sequence: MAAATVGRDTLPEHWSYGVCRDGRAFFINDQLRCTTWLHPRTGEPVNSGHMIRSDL

[10] = target: T10, GST-PLEKHA7 WW1 + WW2 domain (1-162), mutation within the WW2 domain at position 68 (human) (UniProt Q6IQ23)
T10 sequence: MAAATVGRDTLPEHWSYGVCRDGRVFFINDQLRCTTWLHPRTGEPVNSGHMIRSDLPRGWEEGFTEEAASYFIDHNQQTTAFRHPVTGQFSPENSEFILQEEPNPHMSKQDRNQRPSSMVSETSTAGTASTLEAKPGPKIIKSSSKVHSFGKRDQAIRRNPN

B1: PDZD11-HA (human) full-length (protein, UniProt Q5EBL8 1-140)
chain: MDSRIPYDDYPVVFLPAYENPPAWIPPHERVHHPDYNNELTQFLPRTITLKKPPGAQLGFNIRGGKASQLGIFISKVIPDSDAHRAGLQEGDQVLAVNDVDFQDIEHSKAVEILKTAREISMRVRFFPYNYHRQKERTVH
binding [1]: binds | binding [2]: binds | binding [3]: binds | binding [4]: binds | binding [5]: binds | binding [6]: binds | binding [7]: binds | binding [8]: binds | binding [9]: no binding | binding [10]: binds
